From the supplement of paper PMC8728848
This is one part of the list.

Legend:
Experiment in all cases: glycan array binding signal (z-score within array); higher = stronger binding
Conditions in all cases: glycan notation: IUPAC condensed, linker removed
[1] = target: GlcNAc(b1-3)Gal(b1-4)GlcNAc(b1-3)Gal(b1-4)GlcNAc(b1-2)Man(a1-3)[GlcNAc(b1-3)Gal(b1-4)GlcNAc(b1-3)Gal(b1-4)GlcNAc(b1-2)Man(a1-6)]Man(b1-4)GlcNAc(b1-4)GlcNAc
How it was run: (§1)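 Glycan array data were curated from 3228 arrays in the Consortium for Functional Glycomics database and kept only where the protein sequence was available. Glycan names were converted to IUPAC-condensed notation, and columns mapping to the same glycan were averaged. The binding signal is a within-array Z-score, averaged across arrays of the same protein sequence at different concentrations or buffers and across linkers. Negative Z-scores can be read as non-binding.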

[2] = target: GlcNAc(b1-3)Gal(b1-4)GlcNAc(b1-3)Gal(b1-4)GlcNAc(b1-2)Man(a1-3)[GlcNAc(b1-3)Gal(b1-4)GlcNAc(b1-3)Gal(b1-4)GlcNAc(b1-2)Man(a1-6)]Man(b1-4)GlcNAc(b1-4)[Fuc(a1-6)]GlcNAc
How it was run: as §1

[3] = target: GlcNAc(b1-3)Gal(b1-4)GlcNAc(b1-3)Gal(b1-4)GlcNAc(b1-2)[GlcNAc(b1-3)Gal(b1-4)GlcNAc(b1-3)Gal(b1-4)GlcNAc(b1-6)]Man(a1-6)[GlcNAc(b1-3)Gal(b1-4)GlcNAc(b1-3)Gal(b1-4)GlcNAc(b1-2)Man(a1-3)]Man(b1-4)GlcNAc(b1-4)[Fuc(a1-6)]GlcNAc
How it was run: as §1

[4] = target: GlcNAc(b1-3)Gal(b1-4)GlcNAc(b1-3)Gal(b1-4)GlcNAc(b1-3)Gal(b1-4)GlcNAc(b1-2)Man(a1-3)[GlcNAc(b1-3)Gal(b1-4)GlcNAc(b1-3)Gal(b1-4)GlcNAc(b1-3)Gal(b1-4)GlcNAc(b1-2)Man(a1-6)]Man(b1-4)GlcNAc(b1-4)GlcNAc
How it was run: as §1

[5] = target: GlcNAc(b1-3)Gal(b1-4)GlcNAc(b1-3)Gal(b1-4)GlcNAc(b1-3)Gal(b1-4)GlcNAc(b1-2)Man(a1-3)[GlcNAc(b1-3)Gal(b1-4)GlcNAc(b1-3)Gal(b1-4)GlcNAc(b1-3)Gal(b1-4)GlcNAc(b1-2)Man(a1-6)]Man(b1-4)GlcNAc(b1-4)[Fuc(a1-6)]GlcNAc
How it was run: as §1

[6] = target: GlcNAc(b1-3)Gal(b1-4)GlcNAc(b1-3)Gal(b1-4)GlcNAc(b1-3)Gal(b1-4)GlcNAc(b1-2)[GlcNAc(b1-3)Gal(b1-4)GlcNAc(b1-3)Gal(b1-4)GlcNAc(b1-3)Gal(b1-4)GlcNAc(b1-6)]Man(a1-6)[GlcNAc(b1-3)Gal(b1-4)GlcNAc(b1-3)Gal(b1-4)GlcNAc(b1-3)Gal(b1-4)GlcNAc(b1-2)Man(a1-3)]Man(b1-4)GlcNAc(b1-4)[Fuc(a1-6)]GlcNAc
How it was run: as §1

[7] = target: GlcNAc(b1-3)Gal(b1-4)GlcNAc(b1-3)Gal(b1-4)GlcNAc(b1-3)Gal(b1-4)GlcNAc(b1-3)Gal(b1-4)GlcNAc(b1-2)Man(a1-3)[GlcNAc(b1-3)Gal(b1-4)GlcNAc(b1-3)Gal(b1-4)GlcNAc(b1-3)Gal(b1-4)GlcNAc(b1-3)Gal(b1-4)GlcNAc(b1-2)Man(a1-6)]Man(b1-4)GlcNAc(b1-4)GlcNAc
How it was run: as §1

[8] = target: GlcNAc(b1-3)Gal(b1-4)GlcNAc(b1-3)Gal(b1-4)GlcNAc(b1-3)Gal(b1-4)GlcNAc(b1-3)Gal(b1-4)GlcNAc(b1-2)Man(a1-3)[GlcNAc(b1-3)Gal(b1-4)GlcNAc(b1-3)Gal(b1-4)GlcNAc(b1-3)Gal(b1-4)GlcNAc(b1-3)Gal(b1-4)GlcNAc(b1-2)Man(a1-6)]Man(b1-4)GlcNAc(b1-4)[Fuc(a1-6)]GlcNAc
How it was run: as §1

[9] = target: GlcNAc(b1-3)Gal(b1-4)GlcNAc(b1-3)Gal(b1-4)GlcNAc(b1-3)Gal(b1-4)GlcNAc(b1-3)Gal(b1-4)GlcNAc(b1-2)[GlcNAc(b1-3)Gal(b1-4)GlcNAc(b1-3)Gal(b1-4)GlcNAc(b1-3)Gal(b1-4)GlcNAc(b1-3)Gal(b1-4)GlcNAc(b1-6)]Man(a1-6)[GlcNAc(b1-3)Gal(b1-4)GlcNAc(b1-3)Gal(b1-4)GlcNAc(b1-3)Gal(b1-4)GlcNAc(b1-3)Gal(b1-4)GlcNAc(b1-2)Man(a1-3)]Man(b1-4)GlcNAc(b1-4)[Fuc(a1-6)]GlcNAc
How it was run: as §1

[10] = target: GlcNAc(b1-3)Gal(b1-4)GlcNAc(b1-3)Gal(b1-4)GlcNAc(b1-3)GalNAc
How it was run: as §1

[11] = target: GlcNAc(b1-3)Gal(b1-4)GlcNAc(b1-3)GalNAc
How it was run: as §1

[12] = target: GlcNAc(b1-3)Gal(b1-4)GlcNAc(b1-3)[GlcNAc(b1-3)Gal(b1-4)GlcNAc(b1-3)]GalNAc
How it was run: as §1

[13] = target: GlcNAc(b1-3)Gal(b1-4)GlcNAc(b1-6)[Gal(b1-3)]GalNAc
How it was run: as §1

[14] = target: GlcNAc(b1-3)Gal(b1-4)GlcNAc(b1-6)[GlcNAc(b1-3)Gal(b1-3)]GalNAc
How it was run: as §1

[15] = target: GlcNAc(b1-3)Gal(b1-4)GlcNAc(b1-6)[GlcNAc(b1-3)]Gal(b1-4)GlcNAc
How it was run: as §1

[16] = target: GlcNAc(b1-3)GalNAc
How it was run: as §1

[17] = target: GlcNAc(b1-3)Man
How it was run: as §1

[18] = target: GlcNAc(b1-3)[GlcNAc(b1-4)][GlcNAc(b1-6)]GlcNAc
How it was run: as §1

[19] = target: GlcNAc(b1-3)[GlcNAc(b1-6)]Gal(b1-4)GlcNAc
How it was run: as §1

[20] = target: GlcNAc(b1-3)[GlcNAc(b1-6)]GalNAc
How it was run: as §1

[21] = target: GlcNAc(b1-4)Gal(b1-4)GlcNAc
How it was run: as §1

[22] = target: GlcNAc(b1-4)GlcNAc
How it was run: as §1

[23] = target: GlcNAc(b1-4)GlcNAc(b1-4)GlcNAc
How it was run: as §1

[24] = target: GlcNAc(b1-4)GlcNAc(b1-4)GlcNAc(b1-4)GlcNAc(b1-4)GlcNAc
How it was run: as §1

[25] = target: GlcNAc(b1-4)GlcNAc(b1-4)GlcNAc(b1-4)GlcNAc(b1-4)GlcNAc(b1-4)GlcNAc
How it was run: as §1

[26] = target: GlcNAc(b1-4)[GlcNAc(b1-6)]GalNAc
How it was run: as §1

[27] = target: GlcNAc(b1-6)Gal(b1-4)GlcNAc
How it was run: as §1

[28] = target: GlcNAc(b1-6)GalNAc
How it was run: as §1

[29] = target: GlcNAc3Prop(b1-4)GlcNAc
How it was run: as §1

[30] = target: GlcNAc6S(b1-3)Gal(b1-4)GlcNAc
How it was run: as §1

[31] = target: Kdn(a2-3)Gal(b1-3)GalNAc
How it was run: as §1

[32] = target: Kdn(a2-3)Gal(b1-3)GlcNAc
How it was run: as §1

[33] = target: Kdn(a2-3)Gal(b1-4)Glc
How it was run: as §1

[34] = target: Kdn(a2-3)Gal(b1-4)GlcNAc
How it was run: as §1

[35] = target: Kdn(a2-3)Gal(b1-4)[Fuc(a1-3)]GlcNAc
How it was run: as §1

[36] = target: Kdn(a2-6)Gal(b1-4)GlcNAc
How it was run: as §1

[37] = target: Man(a1-2)Man(a1-2)Man(a1-3)Man
How it was run: as §1

[38] = target: Man(a1-2)Man(a1-2)Man(a1-6)[Man(a1-3)]Man
How it was run: as §1

[39] = target: Man(a1-2)Man(a1-3)Man
How it was run: as §1

[40] = target: Man(a1-2)Man(a1-3)[Man(a1-2)Man(a1-6)]Man
How it was run: as §1

[41] = target: Man(a1-2)Man(a1-3)[Man(a1-2)Man(a1-6)]Man(a1-6)[Man(a1-2)Man(a1-2)Man(a1-3)]Man
How it was run: as §1

[42] = target: Man(a1-2)Man(a1-3)[Man(a1-2)Man(a1-6)]Man(a1-6)[Man(a1-2)Man(a1-2)Man(a1-3)]Man(b1-4)GlcNAc(b1-4)GlcNAc
How it was run: as §1

[43] = target: Man(a1-2)Man(a1-3)[Man(a1-6)]Man(a1-6)[Man(a1-2)Man(a1-3)]Man(b1-4)GlcNAc(b1-4)GlcNAc
How it was run: as §1

[44] = target: Man(a1-2)Man(a1-6)[Man(a1-3)]Man(a1-6)[Man(a1-2)Man(a1-2)Man(a1-3)]Man
How it was run: as §1

[45] = target: Man(a1-2)Man(a1-6)[Man(a1-3)]Man(a1-6)[Man(a1-2)Man(a1-2)Man(a1-3)]Man(b1-4)GlcNAc(b1-4)GlcNAc
How it was run: as §1

B1: HPA (Helix pomatia), Q575S3 (protein)
chain: MWAHLTGLLLICALSLSAAQRAQTGEIDCGSDSSWPKDPSDNPNRDNTREIVKHVTFSPQFCREPKVILSVTTLDAEHTKNLRYEARLKSVSPSGLSASCYSWHDGTIYRMKLSWLAVED
glycan array binding signal (z-score) [1]: -0.16
glycan array binding signal (z-score) [2]: -0.243
glycan array binding signal (z-score) [3]: -0.241
glycan array binding signal (z-score) [4]: -0.257
glycan array binding signal (z-score) [5]: -0.241
glycan array binding signal (z-score) [6]: -0.239
glycan array binding signal (z-score) [7]: -0.252
glycan array binding signal (z-score) [8]: -0.248
glycan array binding signal (z-score) [9]: -0.248
glycan array binding signal (z-score) [10]: -0.23
glycan array binding signal (z-score) [11]: -0.261
glycan array binding signal (z-score) [12]: -0.261
glycan array binding signal (z-score) [13]: -0.259
glycan array binding signal (z-score) [14]: -0.244
glycan array binding signal (z-score) [15]: -0.116
glycan array binding signal (z-score) [16]: -0.258
glycan array binding signal (z-score) [17]: -0.26
glycan array binding signal (z-score) [18]: -0.244
glycan array binding signal (z-score) [19]: -0.267
glycan array binding signal (z-score) [20]: -0.253
glycan array binding signal (z-score) [21]: 0.407
glycan array binding signal (z-score) [22]: -0.259
glycan array binding signal (z-score) [23]: -0.263
glycan array binding signal (z-score) [24]: -0.264
glycan array binding signal (z-score) [25]: -0.262
glycan array binding signal (z-score) [26]: -0.263
glycan array binding signal (z-score) [27]: -0.26
glycan array binding signal (z-score) [28]: -0.258
glycan array binding signal (z-score) [29]: -0.274
glycan array binding signal (z-score) [30]: -0.26
glycan array binding signal (z-score) [31]: -0.26
glycan array binding signal (z-score) [32]: -0.267
glycan array binding signal (z-score) [33]: 0.014
glycan array binding signal (z-score) [34]: -0.262
glycan array binding signal (z-score) [35]: -0.256
glycan array binding signal (z-score) [36]: -0.265
glycan array binding signal (z-score) [37]: -0.269
glycan array binding signal (z-score) [38]: -0.26
glycan array binding signal (z-score) [39]: -0.264
glycan array binding signal (z-score) [40]: -0.27
glycan array binding signal (z-score) [41]: -0.266
glycan array binding signal (z-score) [42]: -0.218
glycan array binding signal (z-score) [43]: -0.264
glycan array binding signal (z-score) [44]: -0.268
glycan array binding signal (z-score) [45]: -0.264
